This is one part of the list.

The target of the test is T1, MBP-FoxP1dN (Mus musculus, UniProt P58462 326-579).
T1 sequence: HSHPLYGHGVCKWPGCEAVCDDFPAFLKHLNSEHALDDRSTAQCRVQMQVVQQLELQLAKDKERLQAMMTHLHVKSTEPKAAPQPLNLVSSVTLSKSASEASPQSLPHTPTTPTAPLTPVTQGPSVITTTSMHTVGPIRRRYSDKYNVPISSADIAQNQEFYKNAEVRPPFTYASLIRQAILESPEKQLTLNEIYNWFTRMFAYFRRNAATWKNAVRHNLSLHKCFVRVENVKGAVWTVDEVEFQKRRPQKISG
In words: PD-seq (MBP pull-down with sequencing); 20 mM Tris-HCl pH 7.5, 100 mM NaCl, 1.5 mM MgCl2, 0.4 uM protein, 0.1 uM dsDNA library, 30 min, room temperature, amylose pull-down; high values mean tight binding. The settings on record: protein: recombinant; tags: His6-MBP; chain copies: 2; dsDNA, one strand shown. The procedure, abridged:
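Protein and DNA were mixed at 0.4 µM and 0.1 µM and held for 30 min at room temperature in Tris pH 7.5 buffer with NaCl and MgCl2; the protein was a His6-MBP-tagged, N-terminally truncated mouse FoxP3 or FoxP1 fragment from E. coli, and the DNA a Klenow-filled double-stranded degenerate library. Amylose resin captured the complexes, which were washed three times. Binding is read as reads-per-million enrichment of pull-down versus input after Illumina sequencing, with replicates pooled.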
Take “GATGATTGTTCTCCCAGCTGATGAATTCGTTTGGTCGAGTAAACAAATTTTCCTAATCTTTCTGTTCAAGCGCCATCTAC”: the binding signal is 0.844 RPM ratio (pull-down/input).
Take “GATGATTGTTCTCCCAGCTGATGAATTAGCTATCTCGAGTAAACAAATTTTCCTAATCTTTCTGTTCAAGCGCCATCTAC”: the binding signal was 0.958 RPM ratio (pull-down/input).
As for “GATGATTGTTCTCCCAGCTGATGAATTTTATATATCGAGTAAACAAATTTTCCTAATCTTTCTGTTCAAGCGCCATCTAC”, the binding signal was 1.11 RPM ratio (pull-down/input).
With “GATGATTGTTCTCCCAGCTGATGAATTCGTTCCGTCGAGTAAACAAATTTTCCTAATCTTTCTGTTCAAGCGCCATCTAC” the figure was 0.906 RPM ratio (pull-down/input); with “GATGATTGTTCTCCCAGCTGATGAATTAGTGCCTTCGAGTAAACAAATTTTCCTAATCTTTCTGTTCAAGCGCCATCTAC”, 0.947 RPM ratio (pull-down/input).
For the sequence “GATGATTGTTCTCCCAGCTGATGAATTTACTTATTCGAGTAAACAAATTTTCCTAATCTTTCTGTTCAAGCGCCATCTAC”, the binding signal was 1.53 RPM ratio (pull-down/input).
“GATGATTGTTCTCCCAGCTGATGAATTTCAACCATCGAGTAAACAAATTTTCCTAATCTTTCTGTTCAAGCGCCATCTAC”: the binding signal is 0.972 RPM ratio (pull-down/input).
In the case of “GATGATTGTTCTCCCAGCTGATGAATTGGGACCCTCGAGTAAACAAATTTTCCTAATCTTTCTGTTCAAGCGCCATCTAC” it was 0.788 RPM ratio (pull-down/input).
Take “GATGATTGTTCTCCCAGCTGATGAATTGACAGAGTCGAGTAAACAAATTTTCCTAATCTTTCTGTTCAAGCGCCATCTAC”: the binding signal is 1.07 RPM ratio (pull-down/input).
For “GATGATTGTTCTCCCAGCTGATGAATTTGTTATGTCGAGTAAACAAATTTTCCTAATCTTTCTGTTCAAGCGCCATCTAC”, the binding signal was 1.55 RPM ratio (pull-down/input).
With “GATGATTGTTCTCCCAGCTGATGAATTCAAGGGGTCGAGTAAACAAATTTTCCTAATCTTTCTGTTCAAGCGCCATCTAC”, the binding signal was 0.781 RPM ratio (pull-down/input).
“GATGATTGTTCTCCCAGCTGATGAATTCCGTTCGTCGAGTAAACAAATTTTCCTAATCTTTCTGTTCAAGCGCCATCTAC”: the binding signal is 0.83 RPM ratio (pull-down/input).
In the case of “GATGATTGTTCTCCCAGCTGATGAATTACTAGACTCGAGTAAACAAATTTTCCTAATCTTTCTGTTCAAGCGCCATCTAC” it was 0.985 RPM ratio (pull-down/input).
In the case of “GATGATTGTTCTCCCAGCTGATGAATTTCTTCGATCGAGTAAACAAATTTTCCTAATCTTTCTGTTCAAGCGCCATCTAC” it was 0.922 RPM ratio (pull-down/input); in that of “GATGATTGTTCTCCCAGCTGATGAATTACAAGTATCGAGTAAACAAATTTTCCTAATCTTTCTGTTCAAGCGCCATCTAC”, 1.44 RPM ratio (pull-down/input); in that of “GATGATTGTTCTCCCAGCTGATGAATTGGTCTACTCGAGTAAACAAATTTTCCTAATCTTTCTGTTCAAGCGCCATCTAC”, 0.873 RPM ratio (pull-down/input).
With “GATGATTGTTCTCCCAGCTGATGAATTAACTCTGTCGAGTAAACAAATTTTCCTAATCTTTCTGTTCAAGCGCCATCTAC” the figure was 0.877 RPM ratio (pull-down/input).
Take “GATGATTGTTCTCCCAGCTGATGAATTCGCTGGTTCGAGTAAACAAATTTTCCTAATCTTTCTGTTCAAGCGCCATCTAC”: the binding signal was 0.846 RPM ratio (pull-down/input).
Turning to “GATGATTGTTCTCCCAGCTGATGAATTGTTCGCTTCGAGTAAACAAATTTTCCTAATCTTTCTGTTCAAGCGCCATCTAC”, the binding signal is 1.05 RPM ratio (pull-down/input).
In the case of “GATGATTGTTCTCCCAGCTGATGAATTCCGAGCATCGAGTAAACAAATTTTCCTAATCTTTCTGTTCAAGCGCCATCTAC” it was 0.952 RPM ratio (pull-down/input); in that of “GATGATTGTTCTCCCAGCTGATGAATTGACGCATTCGAGTAAACAAATTTTCCTAATCTTTCTGTTCAAGCGCCATCTAC”, 1.39 RPM ratio (pull-down/input); in that of “GATGATTGTTCTCCCAGCTGATGAATTAGCCACCTCGAGTAAACAAATTTTCCTAATCTTTCTGTTCAAGCGCCATCTAC”, 0.812 RPM ratio (pull-down/input).
With “GATGATTGTTCTCCCAGCTGATGAATTAAGTCATTCGAGTAAACAAATTTTCCTAATCTTTCTGTTCAAGCGCCATCTAC” the figure was 0.996 RPM ratio (pull-down/input); with “GATGATTGTTCTCCCAGCTGATGAATTGCCAGGATCGAGTAAACAAATTTTCCTAATCTTTCTGTTCAAGCGCCATCTAC”, 0.831 RPM ratio (pull-down/input); with “GATGATTGTTCTCCCAGCTGATGAATTCGCGCAATCGAGTAAACAAATTTTCCTAATCTTTCTGTTCAAGCGCCATCTAC”, 1.13 RPM ratio (pull-down/input).
With “GATGATTGTTCTCCCAGCTGATGAATTTACTTAATCGAGTAAACAAATTTTCCTAATCTTTCTGTTCAAGCGCCATCTAC” the figure was 1.48 RPM ratio (pull-down/input); with “GATGATTGTTCTCCCAGCTGATGAATTGTGGTACTCGAGTAAACAAATTTTCCTAATCTTTCTGTTCAAGCGCCATCTAC”, 1.09 RPM ratio (pull-down/input); with “GATGATTGTTCTCCCAGCTGATGAATTGCCCGAATCGAGTAAACAAATTTTCCTAATCTTTCTGTTCAAGCGCCATCTAC”, 0.939 RPM ratio (pull-down/input).
As to “GATGATTGTTCTCCCAGCTGATGAATTACCATACTCGAGTAAACAAATTTTCCTAATCTTTCTGTTCAAGCGCCATCTAC”, the binding signal is 0.954 RPM ratio (pull-down/input).
With “GATGATTGTTCTCCCAGCTGATGAATTCGAGACGTCGAGTAAACAAATTTTCCTAATCTTTCTGTTCAAGCGCCATCTAC” the figure was 0.78 RPM ratio (pull-down/input); with “GATGATTGTTCTCCCAGCTGATGAATTATGGTATTCGAGTAAACAAATTTTCCTAATCTTTCTGTTCAAGCGCCATCTAC”, 1.1 RPM ratio (pull-down/input).

Source of the values: article PMC12820563, “FoxP3 forms a head-to-head dimer in vivo and stabilizes its multimerization on adjacent microsatellites”.
